# Reference: publication PMC4336329 (PLoS ONE, 2015)
# In all, about 310,000 compounds went through this assay and about 2,200 (0.71%) showed an effect of 50% or more. The effect is printed as a negative number. This is one part of the list.
# Target: human ether-à-go-go-related gene (hERG) potassium channel (human, UniProt Q12809)
# Experiment: primary screen, population patch clamp on CHO cells stably expressing hERG
# Sequence of human ether-à-go-go-related gene (hERG) potassium channel (Q12809 whole entry, looked up): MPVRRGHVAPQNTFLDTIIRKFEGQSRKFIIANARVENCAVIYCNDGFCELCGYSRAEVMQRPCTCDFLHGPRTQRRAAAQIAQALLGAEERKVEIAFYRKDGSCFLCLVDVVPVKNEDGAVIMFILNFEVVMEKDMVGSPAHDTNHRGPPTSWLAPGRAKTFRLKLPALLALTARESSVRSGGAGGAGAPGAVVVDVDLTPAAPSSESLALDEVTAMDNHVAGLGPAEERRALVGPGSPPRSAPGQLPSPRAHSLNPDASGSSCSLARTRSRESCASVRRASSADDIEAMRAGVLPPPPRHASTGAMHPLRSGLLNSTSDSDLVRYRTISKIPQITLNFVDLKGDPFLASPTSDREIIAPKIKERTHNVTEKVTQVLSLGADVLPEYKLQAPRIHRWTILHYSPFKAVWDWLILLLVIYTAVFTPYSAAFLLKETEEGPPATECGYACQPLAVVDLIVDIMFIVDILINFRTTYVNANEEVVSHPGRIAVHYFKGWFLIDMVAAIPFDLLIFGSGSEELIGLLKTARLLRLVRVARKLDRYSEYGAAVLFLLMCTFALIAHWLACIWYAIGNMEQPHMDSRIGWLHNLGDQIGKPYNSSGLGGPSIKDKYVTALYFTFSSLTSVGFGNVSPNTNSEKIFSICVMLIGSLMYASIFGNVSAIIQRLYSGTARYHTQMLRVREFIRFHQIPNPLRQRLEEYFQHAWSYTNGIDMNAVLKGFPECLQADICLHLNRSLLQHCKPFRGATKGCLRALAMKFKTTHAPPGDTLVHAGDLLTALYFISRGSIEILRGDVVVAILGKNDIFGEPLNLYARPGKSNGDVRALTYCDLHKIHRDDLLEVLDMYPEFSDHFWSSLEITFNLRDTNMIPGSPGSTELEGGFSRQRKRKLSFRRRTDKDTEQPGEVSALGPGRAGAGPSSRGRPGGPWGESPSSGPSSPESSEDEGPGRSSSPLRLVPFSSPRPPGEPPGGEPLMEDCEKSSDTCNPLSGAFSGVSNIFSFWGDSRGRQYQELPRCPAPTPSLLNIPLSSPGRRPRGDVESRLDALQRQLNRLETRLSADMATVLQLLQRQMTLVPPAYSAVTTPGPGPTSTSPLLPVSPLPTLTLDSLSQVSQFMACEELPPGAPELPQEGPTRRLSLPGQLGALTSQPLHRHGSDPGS
row,SMILES,"hERG current change (%, negative = inhibition) at 1uM [%]"
1,Cc1ccc(Cn2c(N)nc3ccccc32)cc1,8.08
2,CN1CCN(Cc2cn(C)c3ccccc23)CC1CCO (centres unmarked),22.7
3,Cc1cc(C)n(CC(O)Cn2c3ccc(Br)cc3c3cc(Br)ccc32)c(=O)n1 (centres unmarked),17.3
4,CCOc1ccccc1N(C)C(=O)C1CCN(S(=O)(=O)c2cccc3nonc23)CC1,-10.3
5,CCOC(=O)C(C)Oc1ccc(=O)n(-c2ccccc2)n1 (centres unmarked),14
6,COc1cc2c(C)nc3onc(-c4ccccc4)c3c2cc1OC,10.4
7,Br.NCCCSC1=NCCCN1,8.86
8,COc1nc(OC)nc(N2CCCCCC2)n1,13
9,CCOC(=O)N1CCN(C(=O)CN(Cc2ccc(Cl)cc2)S(C)(=O)=O)CC1,0.2
10,O=C(CSc1cc([N+](=O)[O-])cc(S(=O)(=O)Cc2ccccc2)c1)NC1CC1,11.7
11,Cc1ccc(S(=O)(=O)NC2(C(F)(F)F)NC(=O)N(c3ccccc3F)C2=O)cc1 (centres unmarked),7.64
12,COc1ccc([N+](=O)[O-])cc1NC(=O)CC1SC(=Nc2cccc(C)c2C)N(/N=C/c2cccc(OC)c2OC)C1=O (centres unmarked),17.8
13,CCCC/S(C)=N/S(=O)(=O)c1ccc(C)cc1 (centres unmarked),-1.98
14,CCOc1ccc(N(CC(=O)NN=C2CCCC2)S(C)(=O)=O)cc1,11
15,Cc1ccsc1/C=N/Nc1ncc(Cl)cc1Cl,11
16,COc1cc(Oc2nc(C(F)(F)F)nc3ccccc23)ccc1C=O,19
17,COC(=O)c1cc(Br)c(=O)n(CCc2ccc(F)cc2)c1,-3.04
18,O=C(N/N=C/c1ccc[nH]1)c1ccc(COc2cccc3cccnc23)cc1,3.12
19,C#CC1(O)CCC2C3CCC4=C/C(=N/OCC(=O)NCC(=O)NC(C(=O)O)C(C)C)CC[C@]4(C)C3CC[C@@]21C (some centres unmarked),6.19
20,Cc1cc(C)cc(NC(=O)CCc2c(C)nn(-c3ccc(N4CCCCC4)nn3)c2C)c1,11.5
21,CCn1cc(CCC(=O)NCCc2ccccc2)c2ccccc21,13.4
22,NC(=O)CC(NC(=S)NCc1ccccc1)C(=O)O (centres unmarked),5.58
23,O=C(NC(Nc1ccccn1)C(Cl)(Cl)Cl)c1ccccc1 (centres unmarked),12.5

row,SMILES,"hERG current change (%, negative = inhibition) at 1uM [%]"
1,Nc1nc(-c2ccco2)c(-c2ccco2)s1,10.8
2,COc1ccc(NS(=O)(=O)c2cccc(C(=O)NNC(=O)c3ccc(C)o3)c2)cc1,10.2
3,O=C(CSc1nnc(-c2ccccc2)c(-c2ccccc2)n1)N1CCOCC1,-4.68
4,O=C1C2C(c3ccccc3)C=CC(c3ccccc3)C2C(=O)N1c1cccnc1 (centres unmarked),11.2
5,O=C(CNC(=O)c1ccco1)Nc1ccc(Cl)cc1,17.1
6,O=C(NCc1ccccn1)C(=O)NCC1OCCN1S(=O)(=O)c1ccc(Cl)cc1 (centres unmarked),6.39
7,Cc1ccnc(-n2c(-c3ccccc3)nc3ccccc3c2=O)c1,7.16
8,CCC(=O)Nc1ccccc1C(=O)OC(c1ccccc1)c1ccccc1,-1.77
9,Cc1sc(NC(=S)NC(=O)c2ccco2)c(C#N)c1C,0.978
10,COC(=O)c1oc2c(c1C)C(=O)CCC2,7.67
11,O=C(O)c1ccc(S(=O)(=O)N2CCC(c3nc(-c4ccccc4Cl)no3)CC2)cc1,14.1
12,CC1Cc2ccccc2N1C(=S)NC(=O)c1ccco1 (centres unmarked),13.5
13,Cc1ccccc1NC(=O)CN1C(=O)COc2ccc(Cl)cc21,9.12
14,COC(=O)c1cccc(S(=O)(=O)N(Cc2ccco2)Cc2cc3cc(OC)c(OC)cc3[nH]c2=O)c1,0.006
15,CN(C(=O)CN1C(=O)NC(C)(c2cccc(Br)c2)C1=O)C1CCCCC1 (centres unmarked),9.44
16,COc1ccc(-c2[nH]ncc2CN2CCCN(c3ccccc3)CC2)c(F)c1,9.52
17,COc1cc2c(C(=O)O)c(C)n(C)c2cc1Br,14.7
18,CCOC(=O)N1N=C(CC)CC1(O)C(F)(F)F (centres unmarked),4.11
19,CC(=O)c1cccc(-n2nnnc2SCC(=O)NNC(=O)C(C)C)c1,12.9
20,Cc1ccccc1Nc1nnc(C)c(=O)[nH]1,-5.49
21,Cc1[nH]c(C)c(S(=O)(=O)N2CCN(c3cccc(Cl)c3)CC2)c1C(=O)N1CCCCC1,12.3
22,Cn1c(Cc2cccs2)nnc1SCC(=O)N1CCc2ccccc21,0.0674
23,NC(=O)c1ccccc1OCc1cccc2ccccc12,15.5

row,SMILES,"hERG current change (%, negative = inhibition) at 1uM [%]"
1,CC(C)(C)c1cc(N)on1,14
2,C=CCSc1nnc(-c2ccc([N+](=O)[O-])cc2)o1,7.94
3,COc1ccc(-c2nnc(-c3ccc(N)cc3)o2)cc1,11.8
4,Cc1occc1C(=O)NNC(=O)Cc1ccccc1,11.7
5,CCNc1ccc(C(=O)OCC(=O)NCc2ccccc2Cl)cc1[N+](=O)[O-],0.92
6,O=C1CC(NS(=O)(=O)c2ccccc2F)CN1c1ccc2c(c1)OCCO2 (centres unmarked),3.81
7,Cc1ccc(NC(=O)COC(=O)CSC(=S)N2CCOCC2)cc1C,21.3
8,Cc1cccc(OCC(=O)N/N=C/c2cn[nH]c2-c2ccc(Cl)c(Cl)c2)c1,11.8
9,CCN(CC)C(=O)CSc1nc2ccccc2c(=O)n1CCC(=O)N1CCN(c2ccccc2)CC1,-7.16
10,CCn1c(SCC(=O)NC2CCCCC2)nc2c(c1=O)SCC2,15.7
11,CCc1ccc2c(CN3CCN(Cc4ccccc4)CC3)cc(=O)oc2c1,-84.6
12,COc1ccc(/C=N/NC(=O)CNC(=O)c2ccncc2)cc1OC,14.1
13,CC(C)(C)C(=O)Nc1nnc(SCC(=O)NC2CC2)s1,13.5
14,COc1ccc(CCNC(=O)C2CCN(S(=O)(=O)c3c(C)noc3C)CC2)cc1OC,1.05
15,N#Cc1ccc(OCc2ccc(C(=O)O)o2)cc1,9.58
16,Cc1ccc(S(=O)(=O)c2ccccc2)cc1S,1.9
17,CC1(C)CC(=O)C2=C(C1)Nc1ccccc1NC2c1cc(Cl)ccc1O (centres unmarked),3.3
18,CCOC(=O)c1sc2nc(NC(=O)C3CCCCC3)sc2c1C,15.5
19,CCn1c(SCC(=O)NC2CCCCC2)nc2c(c1=O)SC(C)C2 (centres unmarked),3.36
20,Cc1ccc(S(=O)(=O)NCCC(=O)NCc2ccc(Cl)cc2)cc1C,5.14
21,O=C(O)c1ccc(N/N=C/c2ccc3c(c2)OCO3)cc1,12.6
22,COC(=O)CSc1nc2ccccc2n1CC(=O)N(C(C)C)C(C)C,-25
23,Nc1nnnn1/N=C/c1cc([N+](=O)[O-])ccc1O,17.5

row,SMILES,"hERG current change (%, negative = inhibition) at 1uM [%]"
1,COc1ccc(C2CCCN2C(=S)Nc2ccc(C)cc2Cl)cc1OC (centres unmarked),5.08
2,COc1ccc(NC(=O)c2nn(C)cc2[N+](=O)[O-])cc1,12.2
3,CCCC(=O)Nc1ccc(C(=O)NCC2CCCO2)cc1 (centres unmarked),-11.7
4,CCOc1ccc(S(=O)(=O)N2CCOCC2)cc1NC(=O)CSCC(=O)Nc1cccc(C)c1,3.34
5,CC(=O)Nc1ccc(S(=O)(=O)Nc2cccc(-n3c(C)nc4ccccc4c3=O)c2)cc1,10.8
6,Nc1c(Cl)ncnc1NCCO,10.9
7,CCc1ccc(NC(=O)c2ccc(F)c(S(=O)(=O)N(CC)c3ccccc3)c2)cc1,13.4
8,CCOC(=O)c1c(C)[nH]c(C)c1S(=O)(=O)NCC1CCN(Cc2ccc(C)cc2)CC1,-9.26
9,CN1CC(=O)N(CC(=O)Nc2ccc(Br)cc2F)C1=O,0.736
10,COc1ccc(C2=NOC(C(=O)Nc3cccnc3)C2)cc1OC (centres unmarked),-3.13
11,Cc1ccsc1C(=O)OCC(=O)NC1CCCC1,17.7
12,COc1cccc(N2C(=O)[C@H]3C(C(=O)c4cnccn4)=NN[C@H]3C2=O)c1,9.34
13,CSc1ccccc1OCc1cc(C(=O)N2CCCC2c2nonc2C)no1 (centres unmarked),13.7
14,Cc1ccc2c(c1)cc(C(=O)NCc1ccccc1)n2C,16.2
15,CCCCn1c(N)c(N(C)C(=O)c2ccc(Br)o2)c(=O)[nH]c1=O,7.35
16,Cc1cc(S(=O)(=O)N2CCCCC2)c(C)s1,8.88
17,Cc1[nH]c2ccccc2c1/C=N/NC(=O)c1cccc(Br)c1,15.6
18,COc1ccccc1CNC(=O)c1cc(C(C)=O)c[nH]1,22.4
19,COc1cc(OC)cc(C(=O)NNC(=O)c2ccccc2Br)c1,11.4
20,O=C(c1ccc2c(c1)OCO2)N1CCN(S(=O)(=O)c2ccccc2)CC1,1.68
21,CC(C)OCCCNc1nc2c(c(=O)n(Cc3ccccc3F)c(=O)n2C)n1C,-11
22,Cc1ccc(-c2nnc(SCC(=O)N3CCCC3)o2)cc1C,5.77
23,CN(C)CCNC(=O)Cc1ncc(C(F)(F)F)cc1Cl,19
